The campaign covered roughly 230,000 compounds. About 3,600 (1.6%) were called active. This list was built around the results that the source calls inconclusive (neither active nor inactive); the mix of calls is not that of the screen. Calls come from the whole dose curve; as a rule, active = well fitted inhibition curve with a large enough effect (not every such curve was filed as active); inconclusive = small, poorly fitted or top-dose-only effect, or another doubt; inactive = no such curve, though single readings can be large or run the other way. A potency beside an inconclusive call is a rough fit, not a confirmed value.
The molecules below were run against Lysine-specific demethylase 4E (Homo sapiens) (UniProt B2RXH2) (assay: qHTS Assay for Inhibitors of Human Jumonji Domain Containing 2E (JMJD2E)). Conditions: JMJD2E catalytic domain, FDH-coupled NADH fluorescence (FDH is formaldehyde dehydrogenase); series mostly up to 57.1 µM; activity change, negative = inhibition: at the top concentration.
UniProt B2RXH2, sequence (B2RXH2 whole entry, looked up, the tested form may be a part): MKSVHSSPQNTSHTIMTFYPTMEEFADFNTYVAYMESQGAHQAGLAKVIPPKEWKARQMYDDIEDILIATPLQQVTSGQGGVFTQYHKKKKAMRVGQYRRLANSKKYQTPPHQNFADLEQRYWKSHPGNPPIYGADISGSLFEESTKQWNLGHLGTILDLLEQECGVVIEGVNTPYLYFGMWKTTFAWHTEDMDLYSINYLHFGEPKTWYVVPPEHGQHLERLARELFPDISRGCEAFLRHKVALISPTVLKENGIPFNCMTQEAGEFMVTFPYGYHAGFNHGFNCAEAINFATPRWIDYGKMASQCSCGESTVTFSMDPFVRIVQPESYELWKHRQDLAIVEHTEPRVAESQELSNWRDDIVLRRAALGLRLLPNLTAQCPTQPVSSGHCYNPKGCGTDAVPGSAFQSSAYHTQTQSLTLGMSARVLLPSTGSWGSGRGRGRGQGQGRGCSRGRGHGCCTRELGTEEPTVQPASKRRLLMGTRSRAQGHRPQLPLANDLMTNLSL
In the case of `Cc1ccc(C2CC(c3cccs3)=NN2C(=O)c2ccco2)o1` (stereo not given), the Potency is reported as inconclusive: 39.8 µM [inhibitor, single point].
`CCn1c(=O)cc(SCC(=O)NCc2ccccn2)c2ccccc21` was tested, and the Potency was inconclusive: 39.8 µM [inhibitor, single point].
`CC1(C)Cc2c(c(=S)nc(-c3ccccc3)n2CCO)CO1` was tested, and the “activity change, negative = inhibition” value was inactive: 4.85%.
In the case of `Cc1cc2cc(CNC(=O)CCC(=O)O)ccc2n1C`, the Potency is reported as inconclusive: 31.6 µM [inhibitor, single point].
In the case of `Nc1c(S(=O)(=O)c2ccccc2)c2nc3ccccc3nc2n1Cc1ccco1`, the Potency is reported as inconclusive: 31.6 µM [inhibitor, partial curve].
In the case of `O=C(c1ccc2nc(-c3ccco3)c(-c3ccco3)nc2c1)N1CCN(c2ncccn2)CC1`, the Potency is reported as inconclusive: 28.2 µM [inhibitor, partial curve].
With `CCCOc1nc2ccccc2cc1/C=C/C(=O)O` the Potency was inconclusive: 31.6 µM [inhibitor, partial curve].
In the case of `CN1C[C@@H]2C(c3ccc(Cl)nc3)C3(c4ccc(C#N)cc4)CC2(C3)[C@H]1c1ccccc1` (stereo not given in full), the Potency is reported as “inactive”.
`Cc1sc(NC(=O)c2ccco2)c(CN2CCN(c3ccccc3)CC2)c1C` was tested, and the Potency was inconclusive: 31.6 µM [inhibitor, single point].
With `CCOC(=O)C1CCN(Cc2ccc(C(=O)OC)cc2)CC1` the Potency was inconclusive: 31.6 µM [inhibitor, single point].
In the case of `CCC(C)c1ccccc1NC(=O)COC(=O)c1ccc2[nH]c3c(c2c1)CCCC3` (stereo not given), the Potency is reported as inconclusive: 35.5 µM [inhibitor, single point].
For `Cn1c(=O)c2c(-c3ccccc3)n(-c3ccccc3O)cc2n(C)c1=O`, the Potency was inconclusive: 28.2 µM [inhibitor, partial curve].
In the case of `CCCCCCC(=O)Nc1c2c(nc3ccccc13)N(C)CC2`, the Potency is reported as inconclusive: 12.6 µM [inhibitor, partial curve].
For `COCCn1nnnc1CN(CCCN1CCOCC1)Cc1cc2c(C)ccc(C)c2[nH]c1=O`, the Potency was inconclusive: 31.6 µM [inhibitor, partial curve].
For `Clc1ccc(-n2nnnc2-c2cnc3ccc(Cl)cc3c2-c2ccccc2)cc1`, the Potency was inconclusive: 28.2 µM [inhibitor, single point].
In the case of `O=C(CN(c1ccccn1)S(=O)(=O)c1ccc(F)cc1)Nc1ccccc1`, the Potency is reported as inconclusive: 35.5 µM [inhibitor, partial curve].
In the case of `CCCOC(=O)c1ccc(O)c(OC)c1`, the Potency is reported as inconclusive: 39.8 µM [inhibitor, partial curve, poor fit].
`CC(C)CNS(=O)(=O)c1ccc2c(c1)OCCO2` was tested, and the “activity change, negative = inhibition” value was inactive: 4.33%.
In the case of `O=C(O)C1CSC(c2ccc(O)c([N+](=O)[O-])c2)N1` (stereo not given), the “activity change, negative = inhibition” value is reported as inactive: 5.98%.
With `CC1=CC(=C(C#N)C#N)C=C(C)N1CCN1CCN(C(=O)Nc2ccc(Cl)c(Cl)c2)CC1` the Potency was inconclusive: 25.1 µM [inhibitor, partial curve].
With `CCOc1c(C(N)=O)c(-c2ccccc2)c2c(=O)[nH]c3ccccc3n12` the Potency was inconclusive: 3.55 µM [inhibitor, full curve].
In the case of `COc1ccc2c(c1)O[C@H](c1ccc3c(c1)OCO3)[C@@H](OC(=O)N[C@H](C)C1CCCCC1)C2=O`, the Potency is reported as inconclusive: 28.2 µM [inhibitor, single point].
With `CCOC(=O)c1sc(NC(=O)Nc2ccc(Cl)cc2)cc1C` the “activity change, negative = inhibition” value was inactive: -4.48%.
In the case of `C=CCn1c(C)c(C(C)=O)c(N2CCN(c3ccccc3)CC2)nc1=S`, the “activity change, negative = inhibition” value is reported as inactive: -26.2%.
For `O=C(c1cccc(Cl)c1)N1CCN(Cc2ccncc2)CC1`, the Potency was inconclusive: 39.8 µM [inhibitor, single point].
In the case of `O=C1Nc2ccc(S(=O)(=O)NCC3CCCO3)c3cccc1c23` (stereo not given), the Potency is reported as inconclusive: 28.2 µM [inhibitor, partial curve].
With `CC1CC(=O)c2c(cc3c(-c4c(O)cc(O)c5c(O)c6c(cc45)OC(C)CC6=O)c(O)cc(O)c3c2O)O1` (stereo not given) the Potency was active: 8.91 µM.
With `C=CCNC(=O)c1c(N)n(-c2ccc3c(c2)OCO3)c2nc3ccccc3nc12` the Potency was inconclusive: 3.98 µM [inhibitor, full curve].
In the case of `CN1CCN(c2nc(-c3ccccc3)nc(-c3ccc(F)cc3)c2C#N)CC1`, the Potency is reported as inconclusive: 12.6 µM [inhibitor, partial curve, poor fit].
In the case of `COc1ccc(C(=O)Nc2ncc3c(n2)CC(c2ccco2)CC3=O)cc1` (stereo not given), the “activity change, negative = inhibition” value is reported as inactive: -0.956%.
In the case of `CC1(C)CC(=O)C2=C(C1)Nc1ccccc1[S@]2=O`, the Potency is reported as inconclusive: 39.8 µM [inhibitor, single point].
`COc1ccccc1CNC(=O)CCNC(=O)Cn1ccc2ccccc2c1=O` was tested, and the Potency was inconclusive: 39.8 µM [inhibitor, single point].
`CCOC(=O)C1(Cc2ccccc2)CCN(Cc2cc(OC)c3c(c2)OCO3)CC1` was tested, and the “activity change, negative = inhibition” value was inactive: -2.64%.
With `Nc1nn2cc(-c3ccc(Br)cc3)nc2c2ccccc12` the Potency was inconclusive: 25.1 µM [inhibitor, partial curve].
For `N#C/C(=C\c1ccc(O)c(O)c1)C(=O)NCCc1ccccc1`, the Potency was active: 14.1 µM.
In the case of `COc1ccc(CN2C(=O)C(O)(CC(=O)c3c(C)n[nH]c3C)c3ccccc32)cc1OC` (stereo not given), the “activity change, negative = inhibition” value is reported as inactive: 1.08%.
With `Fc1cccc2sc(Nc3nnc(-c4ccccc4)o3)nc12` the Potency was inconclusive: 20 µM [inhibitor, partial curve].
In the case of `Cc1ccc(-n2nc3ccc(NC(=O)c4ccco4)cc3n2)cc1`, the Potency is reported as inconclusive: 20 µM [inhibitor, partial curve].
For `O=C(NCc1nc2ccccc2[nH]1)C1=C[C@@H](c2csc3ccccc23)C[C@@H](OCCCCO)O1`, the Potency was inconclusive: 39.8 µM [inhibitor, single point].
For `Oc1ccc(C2=Nn3c(nnc3-c3ccco3)SC2)cc1O`, the “activity change, negative = inhibition” value was inactive: 1.67%.
With `CCOCc1nnc(NC(=O)c2c(OC)cccc2OC)s1` the Potency was inconclusive: 39.8 µM [inhibitor, single point].
`COc1ccc(/C=C2\CCCC3C2=NN(C(=O)CSc2ncn[nH]2)C3c2ccc(OC)cc2)cc1` (stereo not given) was tested, and the Potency was inconclusive: 35.5 µM [inhibitor, single point].
In the case of `Cc1ccc2c(c1)C(=O)c1c(C(=O)O)cccc1-2`, the “activity change, negative = inhibition” value is reported as inactive: -7.51%.
For `NC(=O)CCC1NC(=S)N(Cc2ccccc2)C1=O` (stereo not given), the Potency was inconclusive: 39.8 µM [inhibitor, single point].
In the case of `COC(=O)NCC(c1ccco1)N1CCN(c2ccc(F)cc2)CC1` (stereo not given), the “activity change, negative = inhibition” value is reported as inactive: 7.4%.
`CC1CCN(C(=O)CN2C(=O)c3cccc4cccc(c34)C2=O)CC1` was tested, and the Potency was inconclusive: 28.2 µM [inhibitor, partial curve].
For `O=c1[nH]c(=O)c2nc3ccccc3nc2[nH]1`, the Potency was inconclusive: 22.4 µM [inhibitor, partial curve].
With `O=C(NCc1ccco1)c1cc(-c2cccnc2)nc2ccc(Cl)cc12` the Potency was inconclusive: 35.5 µM [inhibitor, single point].
For `CSc1ccccc1C(=O)N1CCc2ccccc2C1`, the “activity change, negative = inhibition” value was inactive: -4.13%.
In the case of `CN(C)c1ccc(N=Nc2ccccc2C(=O)OCC(=O)Nc2ccccc2C(F)(F)F)cc1`, the “activity change, negative = inhibition” value is reported as inactive: -0.126%.
With `Cc1ccc(C2C3=C(CCCC3=O)OC3=C2C(=O)CCC3)cc1` the “activity change, negative = inhibition” value was inactive: 2.24%.
With `Cc1nc2c(cc(Oc3ccc(S(=O)(=O)N4CCOCC4)cn3)c3ccsc32)s1` the Potency was inconclusive: 39.8 µM [inhibitor, single point].
`O=C(COC(=O)c1ccc(NS(=O)(=O)c2cccs2)cc1O)Nc1nc2ccccc2s1` was tested, and the Potency was inconclusive: 31.6 µM [inhibitor, single point].
`Fc1ccc(/C=N/NC(=S)Nc2cccnc2)cc1` was tested, and the “activity change, negative = inhibition” value was inactive: -2.37%.
In the case of `Cc1n[nH]c(=O)nc1N/N=C/c1ccco1`, the “activity change, negative = inhibition” value is reported as inactive: -19.3%.
With `CCC1=C2CC[C@H]3C(=O)N(c4ccccc4)C(=O)[C@H]3[C@H]2[C@@]2(C)C(=O)N(Cc3ccccc3)C(=O)N2C1=O` the “activity change, negative = inhibition” value was inactive: -25.9%.
In the case of `O=C1NCCN(Cc2ccc(Cl)c(F)c2)C1CC(=O)N1CCCO1` (stereo not given), the Potency is reported as inconclusive: 31.6 µM [inhibitor, partial curve].
`O=c1cc(-c2ccccc2)[nH]c2nc(Cl)ccc12` was tested, and the Potency was inconclusive: 22.4 µM [inhibitor, single point].
In the case of `COc1ccc2cc3c(N)nn(C(=O)Cc4ccc(Cl)cc4)c3nc2c1`, the Potency is reported as inconclusive: 39.8 µM [inhibitor, single point].
With `CC(=O)Nc1ccc(SC(C)C(=O)NC(N)=O)cc1` (stereo not given) the “activity change, negative = inhibition” value was inactive: 6.21%.
In the case of `O=C(COC(=O)c1cccc(C(=O)OCC(=O)NC2CC2)n1)NC1CC1`, the “activity change, negative = inhibition” value is reported as inactive: -3.97%.
For `COC(=O)c1cc(OC)c(OC)cc1NC(=O)Nc1ccccc1F`, the Potency was inconclusive: 31.6 µM [inhibitor, partial curve].
In the case of `Cc1ccc(C(=O)OCC(=O)Nc2ncc(Cl)cc2Cl)cc1NC(=O)c1ccco1`, the “activity change, negative = inhibition” value is reported as inactive: 4.8%.
In the case of `S=c1[nH]nc(-c2cc(-c3ccccc3)n[nH]2)n1/N=C/c1cccc(Cl)c1`, the Potency is reported as inconclusive: 39.8 µM [inhibitor, single point].
In the case of `O=C(Nc1ccccc1C(=O)O)c1ncn[nH]1`, the “activity change, negative = inhibition” value is reported as inactive: -5.34%.
For `Cc1ccc(Cn2c(=N)c(C(=O)NCc3ccco3)cc3c(=O)n4ccccc4nc32)cc1`, the Potency was inconclusive: 25.1 µM [inhibitor, partial curve].
With `Cc1nc(-c2cccs2)sc1C(=O)NN` the Potency was inconclusive: 31.6 µM [inhibitor, partial curve].
In the case of `CCOc1c2ccc(C(=O)NCc3cc(C(F)(F)F)cc(C(F)(F)F)c3)cc2nn1CCOC`, the Potency is reported as inconclusive: 25.1 µM [inhibitor, partial curve].
With `Cc1ccc(NC(=O)c2nc[nH]c2C(=O)N[C@@H](CCCCNC(=O)OC(C)(C)C)C(=O)OC(C)(C)C)cc1` the Potency was inconclusive: 17.8 µM [inhibitor, single point].
In the case of `COc1ccc(OC)c(/C=C/C(=O)OCC(=O)Nc2ccc(Cl)c(S(=O)(=O)N(C)C)c2)c1`, the Potency is reported as inconclusive: 31.6 µM [inhibitor, partial curve].

Source: PubChem BioAssay AID2147 (National Center for Advancing Translational Sciences (NCATS), 2009)
Note: nearly all actives have a fitted effect of over 50% in size.
Potency is the fitted concentration of half-maximal effect; tags give direction and shape of the fitted curve.
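Throughout, for activity change, negative = inhibition: 0% = wells with enzyme and -100% = buffer wells without enzyme.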
